# Source: the supplement of paper PMC11417369
# The list shows a part of the results.
# Tested on: PfSIP2 AP2 domain 1 (GST-tagged)
# Experiment: gcPBM binding intensity (ln(normalized median fluorescence intensity)); higher = stronger DNA binding
# In short: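 GST-fused DNA-binding domains of P. falciparum, expressed in E. coli, were applied at about 25 μg on average for 1 h to an Agilent 4 × 180k array of primer-extended double-stranded 36-bp intergenic genomic probes and negative controls. Binding intensity is the highest Masliner-normalised natural-log median intensity across replicate spots of either probe orientation, measured with Alexa488 anti-GST antibody and a 488 nm scan.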
row,Sequence,gcPBM binding intensity (ln)
1,CCCAAAAAATATCATAGTACTCAACATGACTACTAT [XGTACX_site7838],6.91
2,AATTTTGTATAGGTATCACACATGAAATATATTATT [CACACA_site5526],6.98
3,AAATAAAATAATAAAACATGCAAAAATAATGATTTA [TGCATGCA_site415],6.81
4,ATAAAGATTAACAAAGTGCATTTATATATATAATCT [GTGCAC_site9407],7.87
5,TATAATTATATAAATTGTACATAAAAAGTTTTTACT [XGTACX_site3621],6.99
6,TATTATATCTTTTCAAGTACACATAACATACTTATT [XGTACX_site1081],7.37
7,CAATATATTATATGGGTGCAAACCACATATAAATAA,10.9
8,TTAGGTATATATAAACGTACTCACAATATCATATAA [XGTACX_site8743],6.98
9,TATATATACTTTTATGTACACACCTATAATATGGGT [CACACA_site1759],7.2
10,AAATGTAATAATAAATGTACAAACATATATATGTAT [XGTACX_site8718],6.94
11,ATAAATAAATAAAAAAGTACATTTCCACTTTTAACA [XGTACX_site81],6.82
12,TGCACCCACCAACACACACACAACTAAAAAATAATG [CACACA_site2566],8.09
13,AAGTTTAAAATCTTTGCACACATATAAATAAATATA [CACACA_site2554],7.27
14,TTAAATGTAATATAATGTACGGATATTTACCATAAA [XGTACX_site1472],6.85
15,AAGTATGTATCACAAAGTACTTAAGCATATATTTAA [XGTACX_site4121],6.72
16,TTGTAATAAATAAAAGTGCATATATGGTTCCACTAT [GTGCAC_site9944],8.18
17,TACAAATATGGACACACACACATATATATATATATA [CACACA_site4488],9.51
18,TTATTTTTTTATTCATGTACACAAGAACATTTCATT [XGTACX_site5744],7.22
19,TAAATATATTGGAGAGGTACACTTTTGGCATTGAAA [XGTACX_site8447],6.93
20,GTATATATAATGTGCCGTACATTTATATATTCAATA [XGTACX_site1051],7
21,GTATAATAGAAACACACACACACACCCAAAAAAAAA [CACACA_site2010],7.25
22,AATAAAATGCAATACATTTTGTTATATAATGTTGTT [CACACA_negctrl_site1525],6.92
23,CACAATGTAGTGTATAAATACAATAAAAGGTTGTAT [CACACA_negctrl_site700],6.92

row,Sequence,gcPBM binding intensity (ln)
1,TAAAGTGTAAAATTCACACACATATATATATATATA [CACACA_site4883],9.57
2,ATATTGTAAGTAAACACACACACATATATCTGTATA [CACACA_site4541],7.2
3,ATTTTTTTTTTCTTTTTTTTTTGTTTTTCTCCTTTT [CACACA_negctrl_site1182],6.56
4,ATTTTTTTTATTATTACACACATATAATAAAAAAAT [CACACA_site1802],7.25
5,GTATAATTTATTGAACGTACACATATATATATGTAT [XGTACX_site1395],7.24
6,TATTTCTTATTACATACACACATATACATAGATGAC [CACACA_site5729],7.15
7,TCTTGTCTACCTTGTATTTAATATTTACATATATAA [TGCATGCA_negctrl_site320],7.45
8,TATTTGTAAAAATTGTGTACTTAGAAAATTCCAAAA [XGTACX_site6007],7.26
9,TATATGTTTTTATGTACACACTTTTAACCTAAGAAA [CACACA_site4769],7.3
10,TTCTTGTATATATTTTGTACATATATACCATTTTAG [XGTACX_site2409],7.15
11,AAATGTATAGGAATAATAATAAAAAAAAAAAAAAAT [CACACA_negctrl_site1793],6.83
12,TGGAGGTCAGTTCACAGTACCCAGTAACTCTACGGA [XGTACX_site2549],6.5
13,AAAAAAAATAAAATAATAAAAATTATGAATATATAT [CACACA_negctrl_site280],7.03
14,ATCATTCCACTTTTCACACATATCTCTATTTCTATC [CACACA_site4723],7.37
15,ATAGGTAATAATAATACACACGGTGAAATATAGATG [CACACA_site9336],6.93
16,CAGTTTACTAATATTGCACACGAATATGAAAAAGAG [CACACA_site8941],8.13
17,AAAAAAAATTATGAAGTGCATTAGTGAATTTGATTG,9.16
18,TTATCATTTGCCATTGTGCACTTATATGCTCACATT,10.2
19,TTTTTCACACTTCAAAAGTGTCAACCTTCTATTCTC [TGCATGCA_negctrl_site489],6.57
20,TTGTCTACAAAAATGTGCTTCTAATCATACGACTTG [CACACA_negctrl_site46],6.71
21,TACATATATTATTGCACACATATAAAATACCCCCAA [CACACA_site3895],8.23
22,GTAAAATTTACATAGAGTACTTATATTTTTTTCTGC [XGTACX_site3414],6.84
23,CACAAATATACAAATACACACAAATATACAAATACA [CACACA_site2385],7.04

row,Sequence,gcPBM binding intensity (ln)
1,AAACTTTTTTTAAAAACACACATATAGATTTATATA [CACACA_site7842],7.01
2,TTTTGTTATTTTTGTATGCACTACATATTATTATAT,8.6
3,TATTTTTAAACAAAACTGTATTTATTTTTTAAAATT [CACACA_negctrl_site1449],6.67
4,TAGTTTTTTATATATTGTACAAATGATATATTATAT [XGTACX_site1002],7.1
5,GAAATTAAAAAATTTATGCACACTTTAAAAAAAAAA [CACACA_site3769],7.81
6,ATATATATATATAATTGTACATTTTTATGTTTTATA [XGTACX_site4560],9.09
7,ATATGTAGTTTTTATTGTACGTGTAGAAGAAATAAT [XGTACX_site6608],7.35
8,TTCATTAAAATTATTACACACAGTTCTTCAACCAAA [CACACA_site3504],6.84
9,AATGATTTTCAATCGAAATGAAACTTAGAAGATATA [CACACA_negctrl_site1475],6.7
10,TTTTAAACAGGACACACACACATATAGATTTATATA [CACACA_site6560],7.04
11,TATATTTTAATTTGAAGTACTAATATTTATTTATAT [XGTACX_site7458],6.99
12,TATAACCATATATACACACACATATAAATATAAATA [CACACA_site7089],7.24
13,AAGGTGGAAACAATTACACACACACTAAAAAAAAAA [CACACA_site7493],6.98
14,ATATATATATATTTCGTGCACTGATAATATTATTTT,10.2
15,ATGAAAAAAAATAAAAAATATATATATATATATATA [CACACA_negctrl_site236],9.65
16,AATTAATATATAAATAATAAAAAAAAATATATAAAC [XGTACX_negctrl_site280],6.88
17,GAACGAAATAAGTGTGTGCACATGTAACCACAAATC [GTGCAC_site9829],8.48
18,CAATATTTTCATAGATGTACTTTGGACTTATTATAT [XGTACX_site4849],6.75
19,TAAATAAAAGATACGAGTACGTATGATGTTAACCTC [XGTACX_site8840],6.76
20,ATTTATATATAGGTGTGTCCACAAATAGTATGTAAA [XGTACX_site2916],7.2
21,GTATATAGTATGTAGAGTACTAATTTCCATATGTTC [XGTACX_site7816],7.05
22,TTTAAAATAACCAAAAACAAAAAGAAACACAAATGT [GTGCAC_negctrl_site705],7.11
23,GATCAAATAGAAAATACATGCAATGTGTGAAATAAC [TGCATGCA_site835],7.49

row,Sequence,gcPBM binding intensity (ln)
1,TTTCAAATGGAATGTGTGCACATAAATGTAAATAAA,9.06
2,AAAAAAAAAATTTACTGTACACATTTGGGATACTCA [XGTACX_site5191],6.79
3,CTTATTTAATGTATCACACACGAGAATAAAAAATAA [CACACA_site3020],7.07
4,TATAAGTTGATATATACACACATATATAAATATGTA [CACACA_site7526],6.96
5,TATTTATAAAAATATACACACATACAAATATGCATA [CACACA_site4555],6.94
6,ATGGTTTTCAGAAAAACATGCATACAATAATAAAAA [TGCATGCA_site815],7.06
7,AATTCTGGCAAAATAACACACACATATATTTTATAT [CACACA_site9064],7.12
8,GTTATAATTGAACTAGTGCATAAATATATTTTAATT [GTGCAC_site9851],9.01
9,TATCTTTTTTTTAATACACACAAATATATGAAAGTA [CACACA_site4161],7.02
10,ATATAAACACTGAATGCATGCACATATATATATATA [TGCATGCA_site940],9.89
11,GGGGGGGGAGGGTGAATACACACGTAATAATCATAA [CACACA_site1716],10.2
12,TTTTTTTTTACTAACTGTACTAAAGAAAAAAAAGGG [XGTACX_site3519],7.58
13,ATAAAGGAATTTTATACACACAACATATATATATAT [CACACA_site2861],9.57
14,ATGTGTATATGTGTGGGTACTTAATTTTTTTCTTTA [XGTACX_site5351],7.25
15,CGTATTATTATATAAACACACAAGGGGGCATGTATA [CACACA_site745],8.25
16,ATTTGTATATACATATGTACACATGTAGGCTCATAA [XGTACX_site1709],7
17,TTTCGTAAACTTTATGCACACACATATACATATTTC [CACACA_site8146],7.6
18,AGTATAACTTTTGCGCGTACACACATTTATCCTCTT [XGTACX_site429],7.38
19,TTTGAATACTGAATGGTGCAAATTGTTCTCCCCATG,10.1
20,TATATTAAAATAATCACACACATCAATTAATGGTAA [CACACA_site1234],6.72
21,TATAATAATATTTACACACGCATATGTTATATATAT [CACACA_site1477],7.28
